Source: the RNAGym collection of RNA variant scans (doi:10.1073/pnas.2313332121)
Variants at the floor of the assay are shown more often than the library holds them.

B1: TPR 5TU (parent)
chain: GGAUCUUCUCGAUCUAACAAAAAAGACAAAUCUGCCACAAAGCUUGAGAGCAUCUUCGGAUGCAGAGGCGGCAGCCUUCGGUGGCGCGAUAGCGCCAACGUUCUCAACUAUGACACGCAAAACGCGUGCUCCGUUGAAUGGAGUUUAUCAUG

Variants of: B1
Assay: polymerase ribozyme fitness, log enrichment relative to wild type (log ratio); higher = more active; in vitro selection for triplet polymerase activity
Outline: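 Mutant libraries of each subunit of a heterodimeric triplet polymerase ribozyme were built by PCR and transcribed. Each library went through one round of in vitro selection in triplicate: annealing with biotinylated primer, partner subunit and triplets, frozen incubation at −7 °C, gel excision of extended constructs, streptavidin-bead capture and RT-PCR. Input and output libraries were Illumina-sequenced; only genotypes with ≥10 input reads and ≥1 read per output were kept. Fitness is log2(genotype enrichment/wild-type enrichment), using inverse-variance-weighted replicate averages.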

| Variant | polymerase ribozyme fitness (log ratio) |
| --- | --- |
| C54A C116G | -0.685 |
| C54A C132A U139C | ≤ -4.2 |
| C54A G58A G71U G117C A137G | ≤ -4.2 |
| C54A G58C A60U G92A U111A | ≤ -4.2 |
| C54A G58C A91U C116G C118U A121G | ≤ -4.2 |
| C54A G58C U77G | ≤ -4.2 |
| C54A G59C C85U A91U G94U G133C | ≤ -4.2 |
| C54A G59U C93A G94A G117U G141U | ≤ -4.2 |
| C54A G65U | ≤ -4.2 |
| C54A G67A C103G | ≤ -4.2 |
| C54A G67U G80U A98U C103A U139G G140U | ≤ -4.2 |
| C54A G70C G80C C85U C99G C132A | ≤ -4.2 |
| C54A G71U A91G C96A A106U | ≤ -4.2 |
| C54A G71U U90A A91U U101G U102A G126U | ≤ -4.2 |
| C54A G84C A89C C93G U145A | ≤ -4.2 |
| C54A G86U U130C A142C | ≤ -4.2 |
| C54A G92A | ≤ -4.2 |
| C54A G94C G141A | -3.13 |
| C54A U55A | -1.91 |
| C54A U55A G65A U145G C149G | ≤ -4.2 |
| C54A U55A U77G A121C A137U | ≤ -4.2 |
| C54A U55G C93G A107U G141C | ≤ -4.2 |
| C54A U55G G100A A113U A142U | ≤ -4.2 |
| C54A U56A G68U A107U U134G U146C | ≤ -4.2 |

| Variant | polymerase ribozyme fitness (log ratio) |
| --- | --- |
| C54A U56C C96A A106C C108A U111A G126C | ≤ -4.2 |
| C54A U61C C63A G67A G86A C103A U145G C149U | ≤ -4.2 |
| C54A U78A C85U G143C | ≤ -4.2 |
| C54A U78G C125U | ≤ -4.2 |
| C54A U78G G80U C85U U134A | ≤ -4.2 |
| C54A U82C U146C | -0.537 |
| C54A U90A A91G | ≤ -4.2 |
| C54G A60G C95G | -2.44 |
| C54G A60U C85G A107U U127A | ≤ -4.2 |
| C54G A89G G100U A106G A137C | ≤ -4.2 |
| C54G A89U A91U G92U A107U | ≤ -4.2 |
| C54G A91U G117C G141U | ≤ -4.2 |
| C54G A97G | -0.818 |
| C54G A97U C103G | ≤ -4.2 |
| C54G A107C U146C | ≤ -4.2 |
| C54G C57U G74A C87U A98G A122U G133U | ≤ -4.2 |
| C54G C72A U77C C85G | ≤ -4.2 |
| C54G C72U G86C A91G | ≤ -4.2 |
| C54G C75G C85G C103G | ≤ -4.2 |
| C54G C75U A97U U101C | ≤ -4.2 |
| C54G C76A C93G C123U | ≤ -4.2 |
| C54G C79A A91G | ≤ -4.2 |
| C54G C79A C93A | ≤ -4.2 |
| C54G C85A G92C G133U U146G | ≤ -4.2 |

| Variant | polymerase ribozyme fitness (log ratio) |
| --- | --- |
| C54G C85U A91C C99A C105A A120U | ≤ -4.2 |
| C54G C87A C96G G100A G117C U144A A147C A150G | ≤ -4.2 |
| C54G C87A C131G U151C | ≤ -4.2 |
| C54G C87G U109C G117U | ≤ -4.2 |
| C54G C87U U148A | ≤ -4.2 |
| C54G C93A G94U U139C | ≤ -4.2 |
| C54G C93U C95G | ≤ -4.2 |
| C54G C95A C118G | -2.03 |
| C54G C95G | -2.56 |
| C54G C95G A107U C108G G143A U145C | ≤ -4.2 |
| C54G C95U U104G U130G U139A | ≤ -4.2 |
| C54G C95U U139G U148G | ≤ -4.2 |
| C54G C99G G136U | -3.14 |
| C54G G58C A60U G80C A91G C93U C105U C116G A137G | ≤ -4.2 |
| C54G G58C C75G U90C C99G | ≤ -4.2 |
| C54G G59A C76A C85G A121C C123A U127G G140C G143U A150C | ≤ -4.2 |
| C54G G59U A60U C96G G133U U144G | ≤ -4.2 |
| C54G G68A C76A C95U | ≤ -4.2 |
| C54G G68A C93A C108G A121C A147C | ≤ -4.2 |
| C54G G68U C87A U104G | ≤ -4.2 |
| C54G G81A C85A U90G G94A | ≤ -4.2 |
| C54G G83U G141U | -1.56 |
| C54G G83U U127G | ≤ -4.2 |
| C54G G84A C87U A122C U127C A142U | ≤ -4.2 |

| Variant | polymerase ribozyme fitness (log ratio) |
| --- | --- |
| C54G G84A G88C U101G | ≤ -4.2 |
| C54G G84C C85A U109G C114A C123G A138C U145A | ≤ -4.2 |
| C54G G86U | -3.24 |
| C54G G92C G141C C149G | ≤ -4.2 |
| C54G G94A | -1.68 |
| C54G G94U C149G | ≤ -4.2 |
| C54G G140U | -3.63 |
| C54G U55A G58U | 0.0801 |
| C54G U55A G83A A121C G136U G141C U148G | ≤ -4.2 |
| C54G U55A U101G A115G G133U | ≤ -4.2 |
| C54G U55G A64C A66C U78G G88U | ≤ -4.2 |
| C54G U56A G68U G92C A115G U145C | ≤ -4.2 |
| C54G U61A U90A G94U | ≤ -4.2 |
| C54G U78A C87U C96U G140A | ≤ -4.2 |
| C54G U82G G83U G94A C99A A122G | ≤ -4.2 |
| C54G U111A C114U A150G | ≤ -4.2 |
| C54G U146G | -2.99 |
| C54U A60C A89C C116U C125U A142C | ≤ -4.2 |
| C54U A64C | ≤ -4.2 |
| C54U A64U C76G C93U A120G C123A G141A U146A | ≤ -4.2 |
| C54U A66G C72U G81C C96A A107G G133U U145A | ≤ -4.2 |
| C54U A66U C85U | ≤ -4.2 |
| C54U A73G G80C G83C C125G G143U | ≤ -4.2 |
| C54U A73G G83U C95G G100U U135A | ≤ -4.2 |

| Variant | polymerase ribozyme fitness (log ratio) |
| --- | --- |
| C54U A89U G92A U102G | ≤ -4.2 |
| C54U A91G C93U G126A G141U U146A | ≤ -4.2 |
| C54U A91U A97C G141C | ≤ -4.2 |
| C54U A91U A107G C131U | ≤ -4.2 |
| C54U A98G C108G | ≤ -4.2 |
| C54U A115U | -2.4 |
| C54U A122U | 0.0261 |
| C54U A137C | ≤ -4.2 |
| C54U C57G G59A C63U C79A U82C C99U | ≤ -4.2 |
| C54U C57U C87A G133A | ≤ -4.2 |
| C54U C69A C85U C129A | ≤ -4.2 |
| C54U C69A G140C | ≤ -4.2 |
| C54U C69G C85G | -3.9 |
| C54U C72A A73C A91C | ≤ -4.2 |
| C54U C72G C85G C118U G141C | ≤ -4.2 |
| C54U C75A G86U A137U | ≤ -4.2 |
| C54U C75G A91G C96A | ≤ -4.2 |
| C54U C76A A91G G141C U151G | ≤ -4.2 |
| C54U C76A C87G A89G U145C | ≤ -4.2 |
| C54U C76G A91U U135G | ≤ -4.2 |
| C54U C76U G83A A110G A142U | ≤ -4.2 |
| C54U C79A G83A C103G | ≤ -4.2 |
| C54U C79G G83A A106U C125G | ≤ -4.2 |
| C54U C79U A115G A120G A122U G141U | ≤ -4.2 |

| Variant | polymerase ribozyme fitness (log ratio) |
| --- | --- |
| C54U C85G A91U | ≤ -4.2 |
| C54U C85G C95U | ≤ -4.2 |
| C54U C85U G88A A115G U135G G136A | ≤ -4.2 |
| C54U C87A C103U A120G | ≤ -4.2 |
| C54U C87G A91U C95U G100C G128C | ≤ -4.2 |
| C54U C87U C105A | -2.09 |
| C54U C93G C96A | ≤ -4.2 |
| C54U C93U A98G | -1.41 |
| C54U C95A | -1.44 |
| C54U C95A C103A U111A C114U U148A | ≤ -4.2 |
| C54U C95U A98G A142U | -1.61 |
| C54U C95U A107G U130C C131A | ≤ -4.2 |
| C54U C95U C96U U146A A150C G152C | ≤ -4.2 |
| C54U C95U G133C | -2.19 |
| C54U G58C C69A A98G A115G C123U G152U | ≤ -4.2 |
| C54U G58C C75G A89G A142U | ≤ -4.2 |
| C54U G59A A60U C95U G128U U130G | ≤ -4.2 |
| C54U G59A A106G A137U A138U | ≤ -4.2 |
| C54U G65A C96A A107U | ≤ -4.2 |
| C54U G65U A73U A91U G141U | ≤ -4.2 |
| C54U G65U C75A G81A G83C U102G G140C | ≤ -4.2 |
| C54U G68C A73G G86C G92A A106G G133A | ≤ -4.2 |
| C54U G68U U82A G94A A97C G117A A138C G141A | ≤ -4.2 |
| C54U G70A C72G C85G G92U C95A C116A U127G | ≤ -4.2 |

| Variant | polymerase ribozyme fitness (log ratio) |
| --- | --- |
| C54U G71A A97U C105U A106C | ≤ -4.2 |
| C54U G71A C96G U148G | ≤ -4.2 |
| C54U G71U U135A A138C | ≤ -4.2 |
| C54U G80A G86U U90G C105U | ≤ -4.2 |
| C54U G83A | -0.655 |
| C54U G83A A115U C118U G140U | ≤ -4.2 |
| C54U G83A G117C G140A | ≤ -4.2 |
| C54U G83C C85G A138G | ≤ -4.2 |
| C54U G83U | -0.319 |
| C54U G84A G92U U144A | -1.38 |
| C54U G84C G100A G117A G126A | ≤ -4.2 |
| C54U G84U C129U A137G A147C U148A | ≤ -4.2 |
| C54U G86C C93U C96G G128C | ≤ -4.2 |
| C54U G92A U101G A110G U146A | ≤ -4.2 |
| C54U G92U | -0.757 |
| C54U U55A C72G U78C C87G C114A C116G | ≤ -4.2 |
| C54U U55A C85A C95A A98G A106U | ≤ -4.2 |
| C54U U55A G59C C108A G140U U144C | ≤ -4.2 |
| C54U U55A G86A C116G | -2.2 |
| C54U U56A A60U G70U A115G A150C | ≤ -4.2 |
| C54U U56A G58A C85U C95A | -1.2 |
| C54U U61A A66C C72A C87A G88U C103A | ≤ -4.2 |
| C54U U77C G94U C96U | ≤ -4.2 |
